Some of the results follow. The list includes weakly bound sequences.

In this assay the target is T1, MBP-FoxP3dN (UniProt Q99JB6).
T1 sequence: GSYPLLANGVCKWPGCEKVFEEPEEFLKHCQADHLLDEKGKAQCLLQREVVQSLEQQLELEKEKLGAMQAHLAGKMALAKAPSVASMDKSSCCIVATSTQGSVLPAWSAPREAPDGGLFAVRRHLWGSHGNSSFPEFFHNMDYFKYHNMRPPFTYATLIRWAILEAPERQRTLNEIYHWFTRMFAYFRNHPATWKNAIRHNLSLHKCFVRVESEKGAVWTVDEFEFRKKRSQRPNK
Description: PD-seq (MBP pull-down with sequencing). The following applies: 20 mM Tris-HCl pH 7.5, 100 mM NaCl, 1.5 mM MgCl2, 0.4 uM protein, 0.1 uM dsDNA library, 30 min, room temperature, amylose pull-down; high values mean tight binding; double strand, one strand shown.
As to “GATGATTGTTCTCCCAGCTGATGAATTTCTCAATTCGAGTAAACAAATTTTCCTAATCTTTCTGTTCAAGCGCCATCTAC”, the binding signal (RPM ratio (pull-down/input)) is 0.279. As for “GATGATTGTTCTCCCAGCTGATGAATTTCTTCAATCGAGTAAACAAATTTTCCTAATCTTTCTGTTCAAGCGCCATCTAC”, the figure is 0.217; as for “GATGATTGTTCTCCCAGCTGATGAATTACGGAGCTCGAGTAAACAAATTTTCCTAATCTTTCTGTTCAAGCGCCATCTAC”, 0.247; as for “GATGATTGTTCTCCCAGCTGATGAATTGACATTATCGAGTAAACAAATTTTCCTAATCTTTCTGTTCAAGCGCCATCTAC”, 0.741. Under “GATGATTGTTCTCCCAGCTGATGAATTGTCACTGTCGAGTAAACAAATTTTCCTAATCTTTCTGTTCAAGCGCCATCTAC” stands 0.562; under “GATGATTGTTCTCCCAGCTGATGAATTGTCCACCTCGAGTAAACAAATTTTCCTAATCTTTCTGTTCAAGCGCCATCTAC”, 0.328.

Regarding “GATGATTGTTCTCCCAGCTGATGAATTCTGGTCCTCGAGTAAACAAATTTTCCTAATCTTTCTGTTCAAGCGCCATCTAC”, the binding signal (RPM ratio (pull-down/input)) stood at 0.337. For “GATGATTGTTCTCCCAGCTGATGAATTACACGTATCGAGTAAACAAATTTTCCTAATCTTTCTGTTCAAGCGCCATCTAC”, the binding signal (RPM ratio (pull-down/input)) came out at 0.844. Under “GATGATTGTTCTCCCAGCTGATGAATTACGAGGGTCGAGTAAACAAATTTTCCTAATCTTTCTGTTCAAGCGCCATCTAC” stands 0.344; under “GATGATTGTTCTCCCAGCTGATGAATTAAGAAGTTCGAGTAAACAAATTTTCCTAATCTTTCTGTTCAAGCGCCATCTAC”, 0.251.

On to “GATGATTGTTCTCCCAGCTGATGAATTACGTCTATCGAGTAAACAAATTTTCCTAATCTTTCTGTTCAAGCGCCATCTAC”, for which the binding signal (RPM ratio (pull-down/input)) stood at 0.77. Consider “GATGATTGTTCTCCCAGCTGATGAATTTCGACCTTCGAGTAAACAAATTTTCCTAATCTTTCTGTTCAAGCGCCATCTAC”, for which the binding signal (RPM ratio (pull-down/input)) is 0.368. As for “GATGATTGTTCTCCCAGCTGATGAATTCTGCCAATCGAGTAAACAAATTTTCCTAATCTTTCTGTTCAAGCGCCATCTAC”, the figure is 0.686; as for “GATGATTGTTCTCCCAGCTGATGAATTGAGTGATTCGAGTAAACAAATTTTCCTAATCTTTCTGTTCAAGCGCCATCTAC”, 1.46; as for “GATGATTGTTCTCCCAGCTGATGAATTTTCAACGTCGAGTAAACAAATTTTCCTAATCTTTCTGTTCAAGCGCCATCTAC”, 0.28.

For “GATGATTGTTCTCCCAGCTGATGAATTTCTTGGGTCGAGTAAACAAATTTTCCTAATCTTTCTGTTCAAGCGCCATCTAC”, the binding signal (RPM ratio (pull-down/input)) is 0.434. For “GATGATTGTTCTCCCAGCTGATGAATTGTTGCACTCGAGTAAACAAATTTTCCTAATCTTTCTGTTCAAGCGCCATCTAC”, the binding signal (RPM ratio (pull-down/input)) stood at 3.78. On to “GATGATTGTTCTCCCAGCTGATGAATTAAGTGGCTCGAGTAAACAAATTTTCCTAATCTTTCTGTTCAAGCGCCATCTAC”, for which the binding signal (RPM ratio (pull-down/input)) amounted to 0.629.

The record behind these values is PMC12820563.
